The list shows a part of the results.

This test relates to PfSIP2 AP2 domain 1 (GST-tagged). Kind of test: gcPBM binding intensity (ln(normalized median fluorescence intensity)); higher = stronger DNA binding. Put shortly:
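In this array assay, P. falciparum DNA-binding domains with a GST tag, expressed in E. coli, were applied for 1 h to primer-extended double-stranded 36-bp intergenic genomic probes and negative controls on an Agilent 4 × 180k array. Bound protein was visualised with Alexa488 anti-GST antibody at 488 nm. Binding intensity is the highest Masliner-normalised natural-log median intensity across replicate spots of either probe orientation.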
For “TTATTTCATTCTTGAAGTACGTGAAAAATGAAAACA [XGTACX_site4089]”, the “gcPBM binding intensity (ln)” value came to 7.24.

In the case of “TACTAATATGATATATAAATATTGTTATATAATAAT [XGTACX_negctrl_site227]”, the “gcPBM binding intensity (ln)” value came out at 6.9.

For the sequence “TGAATACAAATTTACGCATGTAATTTCCAGAGGGAG [TGCATGCA_site769]”, the “gcPBM binding intensity (ln)” value came out at 6.93.

As for “AAAATAAAAGAAAAAAGTACAAAATCAGATTAATTA [XGTACX_site8413]”, the “gcPBM binding intensity (ln)” value turned out to be 6.75.

With “TATAAAATATAATTAGCACACATATATAAAATATAT [CACACA_site9355]”, the “gcPBM binding intensity (ln)” value turned out to be 6.92.

For “AATATATGTAATATATGTACTTAATTATATTTTAAT [XGTACX_site4382]”, the “gcPBM binding intensity (ln)” value was found to be 7.05.

Consider “ATTTAATTTGTTCTTACACACACATATATATATATT [CACACA_site8310]”, for which the “gcPBM binding intensity (ln)” value worked out at 7.2.

For the sequence “ATAATATAAATACAAACACACAATTGCGTCCACATT [CACACA_site5039]”, the “gcPBM binding intensity (ln)” value is 7.13.

“TCATACGAAATATAAACACACATACAATAAATAAAT [CACACA_site5156]”: the “gcPBM binding intensity (ln)” value is 6.91.

Turning to “ATTATAACCATATACACACCCATATAAATAAATATA [CACACA_site6926]”, the “gcPBM binding intensity (ln)” value was determined as 7.19.

Take “CGTTTTAATAAGATCACACATATAATATATATATAT [CACACA_site5159]”: the “gcPBM binding intensity (ln)” value worked out at 8.73.

For the sequence “GGACAAGAATAGTGCACATGCAATGTTATTTTTTAT [TGCATGCA_site450]”, the “gcPBM binding intensity (ln)” value amounted to 10.9.

Regarding “ATATTAAATGTTATCACACACATAATTACTTCCATA [CACACA_site7160]”, the “gcPBM binding intensity (ln)” value is 6.89.

Consider “TATTAAATGGCCATTACATGCAATTATTTCTAATAA [TGCATGCA_site275]”, for which the “gcPBM binding intensity (ln)” value came out at 6.68.

As for “TCAAATATATAGAATACACACATGGATATAAGAAAT [CACACA_site4065]”, the “gcPBM binding intensity (ln)” value was 7.09.

Regarding “TTTTTTAACTGTATGATGTTATATTAAAAATAAAAA [GTGCAC_negctrl_site463]”, the “gcPBM binding intensity (ln)” value is 6.8.

On to “AACGCACGAGGACACACACACATATTTATATTTATA [CACACA_site6608]”, for which the “gcPBM binding intensity (ln)” value was 7.24.

As to “ATTTATATATAATATACACACATATAATACCCATAT [CACACA_site4548]”, the “gcPBM binding intensity (ln)” value was 7.11.

With “ATATATTTTATATAATGTACATAAACCGCACACATA [XGTACX_site6061]”, the “gcPBM binding intensity (ln)” value was found to be 7.77.

Consider “TTTCAAATTTAATACACACACAAGTATATATCTATC [CACACA_site7782]”, for which the “gcPBM binding intensity (ln)” value is 6.98.

Consider “TATATTATGACCACCACACACCTATACACATAACAT [CACACA_site7199]”, for which the “gcPBM binding intensity (ln)” value came to 7.35.

Regarding “TTTAATATTAGCATATGTACACAAATCACACGGAAA [XGTACX_site2473]”, the “gcPBM binding intensity (ln)” value turned out to be 7.5.

Consider “TAATCCTTTCAATATTGTACACATTTGTGTTAAGAA [XGTACX_site1275]”, for which the “gcPBM binding intensity (ln)” value was determined as 7.34.

Consider “ATTTAAAAAAAAAAAAAAAAAAAAAAAAAAAGAAAA [CACACA_negctrl_site722]”, for which the “gcPBM binding intensity (ln)” value came to 6.97.

Turning to “TTGTTTATTTGTAAAGCTAACAAGAAATGTGAATAT [CACACA_negctrl_site931]”, the “gcPBM binding intensity (ln)” value was found to be 7.07.

As to “AACGAACACTATTACACACATACATACATATGTATG [CACACA_site1859]”, the “gcPBM binding intensity (ln)” value was 7.13.

With “TATACATAAAAATGATGTACATATAATATATATATA [XGTACX_site3863]”, the “gcPBM binding intensity (ln)” value was 8.71.

In the case of “TTATTATTATAAAATTGTACTTGGTATATTAACATA [XGTACX_site5829]”, the “gcPBM binding intensity (ln)” value is 6.98.

“ATATAAATATATTTTACACACAATGGAGAAAAAAAT [CACACA_site6450]”: the “gcPBM binding intensity (ln)” value came to 7.14.

On to “ATCTTGAAGATTATTTGTACACAAAAGTTAAAATAT [XGTACX_site242]”, for which the “gcPBM binding intensity (ln)” value came to 6.94.

As to “GGATTAATATATTTACCACACACCCATTTCGATTTT [CACACA_site9200]”, the “gcPBM binding intensity (ln)” value worked out at 6.92.

On to “TATATAATTATTTATTGTACACTCAAATCGATAAGG [XGTACX_site3216]”, for which the “gcPBM binding intensity (ln)” value turned out to be 7.21.

On to “TATTTATAAATATAAACACACAACATTCTATGCATA [CACACA_site3243]”, for which the “gcPBM binding intensity (ln)” value stood at 6.96.

Take “AATGTATTATGTCTTCGTACACATAAATAAATAAAT [XGTACX_site4004]”: the “gcPBM binding intensity (ln)” value is 7.03.

Consider “AATTATAAATTGGACACACACATAAAAAATATGTAC [CACACA_site221]”, for which the “gcPBM binding intensity (ln)” value turned out to be 7.19.

Regarding “TAAAGGAAATAAAAAACATGCAAATATGAAATATAT [TGCATGCA_site745]”, the “gcPBM binding intensity (ln)” value turned out to be 6.84.

Turning to “ATACATAATAACTCCTGTACTTAAAAATGTATATAT [XGTACX_site1071]”, the “gcPBM binding intensity (ln)” value came out at 7.08.

For the sequence “TAAAAAAAAACATGTGCACACGTTTTATCTACATAA [CACACA_site2336]”, the “gcPBM binding intensity (ln)” value worked out at 8.79.

For the sequence “TTACATATTATACGAAGTACGTACAAATACTTATAT [XGTACX_site8598]”, the “gcPBM binding intensity (ln)” value turned out to be 7.16.

Take “TTTTTTTTTTTTTTTTTTAAACACCTCAAAAAAAAA [CACACA_negctrl_site807]”: the “gcPBM binding intensity (ln)” value is 7.03.

For “TTGCATTGTCCATGCGCACACACTACTAGAATAATA [CACACA_site3678]”, the “gcPBM binding intensity (ln)” value came out at 7.84.

With “ACCTTATTTAGTTATAGTACACAAAGTATTAAACAT [XGTACX_site8418]”, the “gcPBM binding intensity (ln)” value was found to be 7.68.

In the case of “GCGAATAATATGGACATACACACATATACATACATA [CACACA_site2115]”, the “gcPBM binding intensity (ln)” value came out at 7.21.

Consider TATATATATTTTTGTGTGCACTATAATATGAAAATA, for which the “gcPBM binding intensity (ln)” value was found to be 10.8.

As to “TTTTTTTTTTTCTTCACACACAGTACTACTATTTAT [CACACA_site2409]”, the “gcPBM binding intensity (ln)” value was 7.04.

These data come from the supplement of paper PMC11417369.
